The full ranking holds about 33,000 sequences; the median of “E-score (-0.5 to 0.5)” is about -0.021, and the highest 2% start at about 0.32. Some of the results follow.
Each sequence was assayed against T1, Zap1 (UniProt P47043) (assay: PBM E-score (8-mer binding enrichment) (E-score (-0.5 to 0.5)); higher = stronger / more preferred TF binding; most listed sequences are background and not binding sites). Conditions: protein concentration: 200 nM; construct: GST-full length.
T1 sequence: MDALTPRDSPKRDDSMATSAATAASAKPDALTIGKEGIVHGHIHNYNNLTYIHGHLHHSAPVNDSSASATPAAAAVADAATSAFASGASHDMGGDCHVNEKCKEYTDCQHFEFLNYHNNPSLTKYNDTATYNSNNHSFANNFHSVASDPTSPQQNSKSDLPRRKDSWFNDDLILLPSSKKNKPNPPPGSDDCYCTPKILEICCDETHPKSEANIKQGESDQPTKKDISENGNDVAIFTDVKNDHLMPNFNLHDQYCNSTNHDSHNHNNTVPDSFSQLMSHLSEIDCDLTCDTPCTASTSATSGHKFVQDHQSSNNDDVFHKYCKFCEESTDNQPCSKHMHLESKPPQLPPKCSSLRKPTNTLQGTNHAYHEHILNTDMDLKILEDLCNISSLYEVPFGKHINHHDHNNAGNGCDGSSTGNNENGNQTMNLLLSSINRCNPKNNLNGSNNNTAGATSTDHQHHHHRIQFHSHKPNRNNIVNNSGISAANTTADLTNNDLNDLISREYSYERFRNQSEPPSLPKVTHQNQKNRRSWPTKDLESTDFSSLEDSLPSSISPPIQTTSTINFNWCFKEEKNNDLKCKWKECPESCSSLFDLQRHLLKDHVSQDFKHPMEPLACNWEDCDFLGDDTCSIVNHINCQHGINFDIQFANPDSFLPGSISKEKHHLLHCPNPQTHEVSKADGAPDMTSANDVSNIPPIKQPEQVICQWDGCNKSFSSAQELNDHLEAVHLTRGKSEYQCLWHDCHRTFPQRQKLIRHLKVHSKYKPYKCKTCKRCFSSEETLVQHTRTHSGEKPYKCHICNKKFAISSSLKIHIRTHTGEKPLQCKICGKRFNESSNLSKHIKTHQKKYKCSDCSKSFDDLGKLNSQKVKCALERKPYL
Outline: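 Each ungapped eight-base word and its reverse complement, pooled, received an E-score from the Universal PBM Analysis Suite. Underlying scans, normalised with masliner, recorded fluorescent anti-GST bound to GST-tagged yeast transcription factors. These were applied at about 100-200 nM to universal all-10-mer Agilent arrays double-stranded by primer extension.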

Sequence	PBM E-score
AGCTTATC	-0.0688
CTCGTAAG	0.215
GCATGTAC	-0.123
GGTGAGCA	-0.12
CATAGCAA	-0.144
ATATTAAA	0.309
CTTTACGA	0.0176
CGGTACCA	0.303
AAAAAGGA	0.15
CCTGAAGC	-0.18
TGTTAAAA	0.0204
ACGCAGGC	-0.211
TAAGGTGA	0.155
AAGTCCTG	-0.127
CGAAGTAG	-0.206
CCTAGGCA	-0.199
ATGTACTG	0.0212
ACGTTAGC	-0.0301
CAGTAAAC	0.0236
ACGGCTCC	-0.198
CTCAGGTA	0.0689
ATTAATAC	0.344
GAGGCCTC	0.0975
ACAACGAC	0.0348
AATTTATC	0.141

Sequence	PBM E-score
AGTAAAGA	0.0117
ACCTGGAC	-0.00821
AATCGGAG	-0.142
CTAGATAC	0.136
CAAGACAA	0.046
AAAACTAT	0.0776
TGCTCCCA	-0.0528
GGGTGCCA	0.184
CTAGGTCC	0.0303
AGCCACCG	-0.111
GCGACAGA	0.0292
GAACACCC	0.214
AGGTAAAA	0.0951
TTGTACAA	0.143
AATCTTTG	0.114
GCAGCTGA	-0.139
CTACAAAA	0.199
GATTCCCC	-0.221
AACTGTTG	-0.147
GAAGTCGA	-0.149
ATGGTTTG	0.178
AAGCCGCA	-0.0267
ATAGCAGA	-0.112
AGCCAAGC	-0.307
GCTCTCAA	-0.0651

Sequence	PBM E-score
GGGAACCA	0.066
GAAAGGCC	-0.0308
GGGGACTA	-0.17
CTGGTACA	0.102
CAAAACAG	0.0786
AGTTCTTC	-0.114
ACTACACG	0.0523
ATCTTTTG	0.113
CCTTTCGA	0.114
GCGCTTTA	0.0127
CGCTTCAA	0.0925
CACGGCTA	-0.155
AACTATCG	0.0124
GCGAGATA	0.041
CTATGACC	0.266
TCGGACCA	0.047
ACGAGAGC	-0.281
AGGGCTAA	-0.145
ACTAGCTA	-0.0342
CGATCAAG	0.0316
AGTTACTA	0.129
GACTAGGA	-0.198
CTGGCCTA	-0.175
GAGCAACA	-0.0905
CGGCGAGC	-0.297

Sequence	PBM E-score
GCGATAAA	0.0759
ACTGGGAG	-0.25
CCTGCAAG	-0.043
AGGCACTG	-0.0331
CGAAGACA	-0.141
TGACGGAA	-0.0455
AGAGCCCT	-0.249
AACGCGCT	-0.0561
GCAAATTA	0.084
CCACTGGC	0.0279
AAGGCTCA	-0.185
ATGGCCCG	-0.065
AAGTTGCC	-0.166
GCTGACAC	-0.0911
CATTCGTA	-0.0481
AGGGGTCA	0.438
TACTCTAA	0.141
ACATCATG	-0.113
AGCGGGGG	-0.349
CAGGCGAA	-0.179
AATAGTAA	0.216
CGAGTTAG	0.0552
GACAGGGA	-0.19
AAAGCGTT	0.00705
CCCGTAGG	0.131

Sequence	PBM E-score
GGCACCCA	0.101
CTACACAA	0.129
CCTCCATA	-0.106
ATAGCCGG	-0.074
CCTAACTA	0.135
CGCTCCCA	-0.241
GTTTGTAA	0.13
CCCAGATC	-0.187
CAAGAGTC	-0.0258
ACATTCTG	-0.183
ATACCCGG	0.234
GCATAACC	0.414
CACTGGGG	0.0774
CAGACAAA	0.125
ATGGAAAC	0.0276
CCTGCAGA	-0.0116
GCGTCGTA	-0.0201
AACCGCCC	0.0827
CACAATGC	-0.0567
GAAAGCAC	-0.0639
ATGAATCG	0.0519
ACACTTAG	-0.0017
GCAGTGGA	-0.0424
GATTACGA	0.144
AGCGGGAC	-0.0643

Sequence	PBM E-score
GATGGAGC	-0.337
GACTGCCC	-0.267
AAGGCTAA	-0.0104
ACACCAAG	0.038
CTGACGGA	-0.09
AATCGAGC	-0.174
ACCGACGC	-0.183
AACTTCTG	-0.0719
CCGCGTAC	-0.0732
CCAAGGGA	-0.0225
CACGGCGA	0.0127
CCTTCACA	0.0885
TCCTGGAA	-0.016
ACTACTCC	-0.0247
GATGTATA	-0.0515
CCCACACC	0.14
GGTGTTCA	0.155
CGAGCTGA	0.12
AGCAGCAT	-0.268
AGGTGACC	0.393
CTCACCGA	-0.00747
ACCTGTTA	0.0236
GTACCTAC	0.0513
ACTTTTGC	-0.0825
CTAGCGTA	-0.213

Sequence	PBM E-score
AGACTAGC	-0.332
AAGTTGCT	-0.0577
ACAGGACA	0.111
CGCACTGA	-0.228
GCTAAGGA	-0.344
ACCCGCCG	0.287
AGGCATTG	-0.194
GGACACTA	0.0122
AGTATCGA	0.101
ACACCCAA	0.049
TACGAATA	0.197
CGACAGCG	-0.154
AAGTGACC	0.256
ATGTTGGC	-0.144
CGAAGGCA	-0.222
CCTTTGAC	0.055
CTCTTGGC	-0.0664
CGCGTCAC	-0.0897
GCCATTGA	0.062
ATTTCAGG	0.114
CCAACTTA	-0.0477
GAAGCTGC	-0.265
